Source: publication PMC10668032
This is one part of the list. At the low end of the ranking the order means little.

What follows are sequences tested against SIX1-Q177R homeodomain (UniProt Q15475) (assay: universal protein binding microarray). Settings: Universal all-10-mer PBM (8x60K, AMADID 030236), 300 nM GST-tagged protein, Alexa Fluor 488 anti-GST; buffer, salt, pH and temperature not stated; high values mean tight binding; most listed sequences are background and not binding sites; double strand, one strand shown.

| Sequence | binding signal |
| --- | --- |
| ACGTTACT | -0.0152 E-score |
| ATTTCACC | -0.0368 E-score |
| GCAGGAAC | -0.0527 E-score |
| AAAGTGTC | 0.36 E-score |
| CCGTGAGC | -0.217 E-score |
| CCCTCAAG | 0.145 E-score |
| CCCGATAG | 0.00661 E-score |
| CAGGGGCG | 0.141 E-score |
| AGCTTCAA | -0.0875 E-score |
| TCCACAGA | -0.0469 E-score |
| GAGCGGAA | -0.091 E-score |
| CCAGGGAA | -0.188 E-score |
| CGCCCGCA | 0.0818 E-score |
| AACGGGCT | -0.203 E-score |
| CCCAGTTA | 0.117 E-score |
| AACGTTCT | -0.254 E-score |
| ACCGGCCT | -0.177 E-score |
| CAAAGTAA | -0.128 E-score |
| CTGGCCCC | -0.153 E-score |
| CCGTCAAC | -0.206 E-score |
| CCCCCCCA | 0.131 E-score |
| CCTAATTA | 0.0243 E-score |

| Sequence | binding signal |
| --- | --- |
| AGGCGGGA | -0.0564 E-score |
| CGGATCTC | -0.118 E-score |
| CGCCCTCC | 0.102 E-score |
| ACGGACGC | -0.0357 E-score |
| TCGTCTAA | -0.148 E-score |
| GTGCAAAA | 0.107 E-score |
| ACCTTGCA | -0.0329 E-score |
| GCCAAACA | 0.00728 E-score |
| AGTCTATA | -0.124 E-score |
| TATAGCAA | -0.114 E-score |
| GTTGGTGA | 0.0205 E-score |
| ACAGGTAC | 0.0087 E-score |
| ACTTAGAT | 0.0918 E-score |
| GTTGTCCA | -0.0292 E-score |
| GCCTCGAC | 0.118 E-score |
| ATAACTTA | -0.0915 E-score |
| GGGAGAAC | 0.0158 E-score |
| ACGTTGCA | -0.0303 E-score |
| AGCTTATC | -0.023 E-score |
| AGAGCGCA | -0.0692 E-score |
| GCACTGCC | -0.129 E-score |
| ATACAAAG | -0.197 E-score |

| Sequence | binding signal |
| --- | --- |
| CTACAGCC | -0.213 E-score |
| ACGGCATC | -0.00636 E-score |
| AAAGTTCC | -0.334 E-score |
| ATGGAATA | -0.176 E-score |
| ACTATATC | 0.178 E-score |
| ATTCCGGG | 0.113 E-score |
| ACGGCTCA | -0.0559 E-score |
| GTACTCAC | -0.0716 E-score |
| GGGATCAC | 0.277 E-score |
| CGTACGGC | 0.0372 E-score |
| AGACAAAC | -0.159 E-score |
| CGTAGGAC | 0.117 E-score |
| AAGACGCG | -0.0665 E-score |
| AAAAATCT | -0.244 E-score |
| AAGTGCAC | 0.073 E-score |
| CGTTGTTC | -0.24 E-score |
| AGTCGCCA | -0.0635 E-score |
| AAAGGGCT | -0.278 E-score |
| AAGGACCC | 0.0358 E-score |
| GTATTGTA | 0.089 E-score |
| ATGTATTC | -0.0646 E-score |
| ATGTCCCG | -0.178 E-score |

| Sequence | binding signal |
| --- | --- |
| AGGGTCTC | -0.0215 E-score |
| CGAGGTTA | -0.119 E-score |
| AGAGCCAC | -0.173 E-score |
| AAATTATC | -0.0868 E-score |
| CTACGAAG | -0.0627 E-score |
| AGCTACCT | -0.173 E-score |
| CACGCATC | 0.168 E-score |
| ACCCCTCT | 0.304 E-score |
| ACCGAAAA | -0.0806 E-score |
| ATGATTTA | -0.0946 E-score |
| ACAGAGAA | -0.248 E-score |
| CTTTGCAC | 0.16 E-score |
| ACATCACT | -0.0399 E-score |
| GGCGAACA | 0.198 E-score |
| ACCCGCTC | 0.227 E-score |
| CTTGGTCC | 0.0781 E-score |
| CTGTTGTC | -0.0928 E-score |
| GAGGGTGC | 0.237 E-score |
| CTCAATCC | -0.0885 E-score |
| AGGCATAT | -0.219 E-score |
| TCCCTCGA | 0.101 E-score |
| ATGTAACA | 0.272 E-score |

| Sequence | binding signal |
| --- | --- |
| TAATCGCA | -0.0859 E-score |
| ACATACGA | -0.254 E-score |
| CTGTGTCC | 0.0691 E-score |
| CAAGCATC | -0.191 E-score |
| ATTTAGGG | -0.0121 E-score |
| AACTGAAG | -0.187 E-score |
| TGATGCAA | -0.213 E-score |
| CTACATAG | -0.153 E-score |
| ACATTAAG | -0.0981 E-score |
| AACGACTC | 0.128 E-score |
| CTTCTCCA | -0.232 E-score |
| CGGATTCC | 0.124 E-score |
| CCGGGCTC | -0.00791 E-score |
| GGCCCACC | -0.146 E-score |
| AGGGTTGC | -0.114 E-score |
| ACCTTGAG | -0.0157 E-score |
| CCTGCAAC | 0.0553 E-score |
| ATAGAGTG | 0.135 E-score |
| TCCGGGCA | -0.0199 E-score |
| CGATGGAA | -0.168 E-score |
| AACTAATA | -0.0757 E-score |
